About 6,400 (1.6%) of roughly 410,000 compounds were called active. The shares of active, inactive and inconclusive entries below differ from those in the screen. The call rests on the fitted dose curve; in most records, active means well fitted inhibition curve with a large enough effect; inconclusive means small, poorly fitted or top-dose-only effect; inactive means no such curve, though single readings can be large or run the other way. Where the call is inconclusive, the potency comes from a doubtful curve fit.
Target: Glucagon-like peptide 1 receptor (Homo sapiens) (UniProt P43220)
Chain of UniProt P43220 (P43220 whole entry, looked up): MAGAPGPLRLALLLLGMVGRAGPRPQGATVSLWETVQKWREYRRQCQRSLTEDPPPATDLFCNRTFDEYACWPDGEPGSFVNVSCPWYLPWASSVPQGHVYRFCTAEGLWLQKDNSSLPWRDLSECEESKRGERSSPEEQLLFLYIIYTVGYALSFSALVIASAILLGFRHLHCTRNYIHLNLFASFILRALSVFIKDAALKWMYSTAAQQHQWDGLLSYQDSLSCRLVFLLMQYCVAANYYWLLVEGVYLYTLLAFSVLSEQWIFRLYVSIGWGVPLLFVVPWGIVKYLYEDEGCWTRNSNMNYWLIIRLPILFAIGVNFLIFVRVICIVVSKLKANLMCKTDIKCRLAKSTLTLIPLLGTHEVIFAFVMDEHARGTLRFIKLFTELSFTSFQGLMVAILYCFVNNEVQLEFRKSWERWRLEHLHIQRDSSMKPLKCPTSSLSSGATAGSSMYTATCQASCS
Assay: qHTS of GLP-1 Receptor Inverse Agonists (Inhibition Mode); further: nearly all actives have a fitted effect of over 55% in size
Conditions: HEK293 GLP-1R CRE-luciferase, luminescence, 24 h, GLP-1R form is constitutively active; series mostly up to 38.3 µM
Summary of the method: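 Readout was luciferase luminescence, measured 12 min after detection reagent at room temperature. Beforehand, GLP-1R reporter HEK293 cells had sat 12 h, then received compounds for 24 hr at 37 deg C.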
Potency means the concentration at half of the fitted maximal effect; tags describe the fitted curve by direction and shape.

Potency, inactive:
COc1cccc(-c2c(C(=O)N/N=C/c3ccco3)nnn2-c2nonc2N)c1
CCc1ccc(-n2nc(CO)c(C(=O)NCCCc3ccccc3)n2)cc1
Nc1ccc(C(=O)N/N=C\c2ccc(OC(=O)c3ccccc3Cl)cc2)cc1
c1ccc(CN2CCN(c3ncnc4c3cnn4-c3ccccc3)CC2)cc1
COc1ccc(CNC(=O)c2cn(Cc3ccccc3F)c(=O)s2)cc1
COCCNC(=O)c1cc2oc3ccccc3c2n1C
CCCCn1nnnc1SCC(=O)NC1CCCCC1
O=C(COc1ccccc1-c1nc(-c2ccccc2)no1)Nc1cccc([N+](=O)[O-])c1
CCOc1cc2[nH]c(=S)n(CCCN(CC)CC)c(=O)c2cc1OCC
COc1ccc(-c2csc(NC(=S)NC(=O)c3ccc4ccccc4c3)n2)cc1OC

Potency, inconclusive:
O=C(NCc1ccc(F)cc1)c1ccc(CS(=O)(=O)Cc2ccc(F)cc2)o1 6.31 µM [inhibitor, partial curve]
Cc1ccc(C)c(S(=O)(=O)c2nnn3c2nc(NC2CCCCC2)c2sccc23)c1 28.2 µM [inhibitor, single point]
CN(C)c1ncc(S(=O)(=O)c2ccccc2)c(-c2ccc(Cl)cc2Cl)n1 31.6 µM [inhibitor, single point]
Cc1cc(NC(=O)c2noc3c2CCCC3)nn1Cc1ccc(Cl)cc1 20 µM [inhibitor, single point]
COc1ccc(C(C)=O)cc1CSc1nnc(-c2ccc(Cl)cc2)n1-c1ccccc1 12.6 µM [inhibitor, partial curve, poor fit]
CCC1=Nc2cc(C(=O)NCCN(CC)CC)ccc2Sc2ccccc21 10 µM [inhibitor, partial curve, poor fit]
CC1=NN(C(N)=S)C(=O)C1N=Nc1ccc(Br)cc1 (stereo unspecified) 0.794 µM [inhibitor, partial curve, poor fit]
CCc1cc(C(=O)Cc2ccc(F)cc2)c(O)cc1O 10 µM [inhibitor, partial curve, poor fit]
CCCCOc1ccc(C(=O)N2CCN(CC(=O)Nc3ccc(C)cc3)CC2)cc1OC 11.2 µM [inhibitor, single point]
CCc1cccc(NC(=O)C2CCC(CNS(=O)(=O)c3ccc(Br)s3)CC2)c1 (stereo unspecified) 4.47 µM [inhibitor, full curve, poor fit]
CCOc1ccc(C(=O)c2cc([N+](=O)[O-])ccc2Cl)cc1 12.6 µM [inhibitor, partial curve, poor fit]
COc1cccc(-c2csc(N3CCN(C(=S)Nc4ccccc4OC)CC3)n2)c1 8.91 µM [inhibitor, partial curve]
O=C(CN1CCC(Cc2ccccc2)CC1)NCCc1ccc(F)cc1 8.91 µM [inhibitor, partial curve, poor fit]
Cc1ccccc1OCC(=O)Nc1cccc(C(=O)OCc2cc(=O)n3c(C)csc3n2)c1 28.2 µM [inhibitor, single point]
COc1ccc(-c2ccc3[nH]c4c(c3c2)CCN2C[C@H]3[C@H](C)ON(C)[C@H]3C[C@@H]42)cc1 28.2 µM [inhibitor, single point]
Cc1ccc(C)c(S(=O)(=O)NC2CCSC2=O)c1 (stereo unspecified) 10 µM [inhibitor, partial curve, poor fit]
CNC(=S)N(Cc1ccc(Cl)cc1)Cc1cccs1 11.2 µM [inhibitor, partial curve, poor fit]
Cc1cc(C)c(S(=O)(=O)Nc2nnc(C3CCCCC3)s2)c(C)c1 31.6 µM [inhibitor, partial curve, poor fit]
CCOc1ccc(-c2c(C)nn3c(C)c(C(=O)NCCc4ccc(Cl)cc4)cnc23)cc1OCC 11.2 µM [inhibitor, single point]
Cc1ccc(S(=O)(=O)Cc2ccc(C(=O)N3CCN(c4cccc(Cl)c4)CC3)o2)cc1 0.891 µM [inhibitor, full curve, poor fit]
CC(C)Oc1ccc(CNC(=O)C2CCN(C(=O)N3CCOc4ccccc43)CC2)cc1 10 µM [inhibitor, single point]
CC(NC(=O)CCCCCCN1C(=O)c2ccccc2C1=O)c1ccc2c(c1)CCCC2 (stereo unspecified) 8.91 µM [inhibitor, partial curve, poor fit]
O=C(CN1CCCc2ccccc21)NCCc1ccc(Cl)cc1 8.91 µM [inhibitor, partial curve, poor fit]
NC(=S)N/N=C/c1ncc(C(F)(F)F)cc1Cl 1.41 µM [inhibitor, full curve, poor fit]
C=CCNc1nc(N2CCCC2)nc2ccccc12 7.94 µM [inhibitor, partial curve]
N#CCCN(C(=O)COC(=O)CCC(=O)c1ccc(F)cc1)c1ccccc1 3.55 µM [inhibitor, full curve]
COc1ccc(N=C2SC(CC(=O)Nc3ccccc3OC)C(=O)N2Cc2ccco2)cc1 (stereo unspecified) 11.2 µM [inhibitor, partial curve, poor fit]
COC(=O)C1=C(C)N(C)C(C)=C(C(=O)OC)C1c1ccccc1C 10 µM [inhibitor, partial curve, poor fit]
O=S(=O)(Nc1ccc2c(c1)oc1ccccc12)N1CCCC1 28.2 µM [inhibitor, single point]
CCc1ccc(C(C)NC(=O)c2cc(C)oc2C)cc1 (stereo unspecified) 10 µM [inhibitor, partial curve, poor fit]

Potency, active:
CC(C)C(=O)Nc1cccc(COc2ccc(CN(CCc3ccccc3)C(=O)OC(C)(C)C)cc2)c1 6.31 µM
